From PubChem BioAssay AID1745853 (National Center for Advancing Translational Sciences (NCATS), 2022)
The other results are listed elsewhere or left out. These are further read-outs of the screen, such as a control signal, another cell line or another target. No call is given for them.

Columns and labels:
Assay in all cases: Primary Screen for Target Class Profiling of Small Molecule Inhibitors of Methyltransferases
[1] = molecular target: Glycine N-methyltransferase (Homo sapiens) (UniProt Q14749); conditions: purified enzyme, MTase-Glo SAH luminescence; measured here: GNMT inhibition; at 40 µM; stronger effect = lower value
In short: (§1)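 Each enzyme was assayed with SAM and its substrate. SAH formation detected by MTase-Glo luminescence; single-point 40 uM screen[…].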

[2] = molecular target: Guanidinoacetate N-methyltransferase (Homo sapiens) (UniProt Q14353); conditions: purified enzyme, MTase-Glo SAH luminescence; measured here: GAMT inhibition; at 40 µM; stronger effect = lower value
In short: as §1

[3] = molecular target: Histamine N-methyltransferase (Homo sapiens) (UniProt P50135); conditions: purified enzyme, MTase-Glo SAH luminescence; measured here: HNMT inhibition; at 40 µM; stronger effect = lower value
In short: as §1

[4] = molecular target: Nicotinamide N-methyltransferase (Homo sapiens) (UniProt P40261); conditions: purified enzyme, MTase-Glo SAH luminescence; measured here: NNMT inhibition; at 40 µM; stronger effect = lower value
In short: as §1

[5] = molecular target: Phenylethanolamine N-methyltransferase (Homo sapiens) (UniProt P11086); conditions: purified enzyme, MTase-Glo SAH luminescence; measured here: PNMT inhibition; at 40 µM; stronger effect = lower value
In short: as §1
% is set by controls: 0 for no effect and ±100 for the full control effect.

SMILES | activity change, negative = inhibition [1] [%] | activity change, negative = inhibition [2] [%] | activity change, negative = inhibition [3] [%] | activity change, negative = inhibition [4] [%] | activity change, negative = inhibition [5] [%]
O=C1CCC2(CNC(=O)c3cc(F)ccc3F)CCC=C2N1 (stereo not drawn) | 0.632 | -1.07 | 2.81 | -4.57 | 3.2
CC(C)Nc1nc(Nc2ccccc2)nc(-c2ccccc2)n1 | -3.67 | -15.9 | -9.06 | -23.4 | -15.3
COCCn1c(C)cnc1C1CCN(S(=O)(=O)c2ccc(C#N)cc2)C1 (stereo not drawn) | -0.66 | -0.596 | -6.96 | -8.07 | -0.919
COc1ccc([C@H]2CN(C(=O)C3(c4ccc(F)cc4)CC3)C[C@@H]2N)cc1 | -3.99 | -2.43 | -1.43 | -1.07 | 2.88
COc1cccc(CN2C[C@@H]3C(C(=O)O)[C@@H]3C2)c1OCCn1ccnc1 (stereo partly drawn) | -5.24 | -5.17 | -2.38 | -10.7 | -5.04
CCCN1C(=O)c2cc(C(=O)NCc3ccccc3)nn2CC1(C)C(=O)NC1CCCC1 (stereo not drawn) | 4.48 | 0.533 | 2.65 | 7.7 | 2.72
CCOc1ccc(NC(=O)N2CCn3cccc3C2C)cc1 (stereo not drawn) | 1.45 | 0 | 2.76 | -5.2 | -0.686
CCOCCCNC(=O)C1c2c(n(C)c3ccccc23)SCC(=O)N1c1ccc(C(C)C)cc1 (stereo not drawn) | -0.144 | 1.02 | -1.22 | -5.11 | 1.52
COc1ccccc1CNc1nc2c(S(=O)(=O)c3ccccc3)nnn2c2ccc(Cl)cc12 | -2.14 | 1.03 | 4.32 | 7.47 | 1.07
Cc1ccc2c(c1)c(-n1cccc1)c1n2CC(C)(C(=O)NC2CCCC2)N(CCC2=CCCCC2)C1=O (stereo not drawn) | -5.75 | -3.6 | -6.99 | -14.3 | -7.51
O=C1CCCCC(C(=O)N2CCCCC2)N1 (stereo not drawn) | 0.131 | 0.004 | 3.39 | -2.53 | 0.615
O=c1c2nc(Nc3cccnc3)ccc2ncn1-c1ccc(F)cc1F | -20 | -14.3 | -15.7 | -22.1 | -19.8
CC1CN(S(=O)(=O)c2cccc3cnccc23)CCN1 (stereo not drawn) | 0.403 | 8.26 | 8.54 | -7.55 | 0.916
Cc1ccc(NC(=O)CSc2nnc3n(CC(C)C)c(=O)c4ccccc4n23)cc1 | -4.64 | -5.64 | 10.4 | -30.5 | -0.795
CC1(C(=O)NC2CCCC2)Cn2c(cc3ccccc32)C(=O)N1CCN1CCOCC1 (stereo not drawn) | 2.96 | 4.13 | 2.42 | 2.6 | -3.45
CN(CC(=O)Nc1ccccc1F)S(=O)(=O)c1ccc2[nH]c3c(c2c1)CCCC3 | -4.85 | -3.27 | 1.44 | -3.69 | -0.94
CCOC(=O)C1=C[C@]2(CC)CCCN3CCc4c(n1c1ccccc41)[C@@H]32 | -12.1 | 7.4 | -13.8 | -1.65 | 5.11
CCn1c(-c2nonc2N)nc2c(C#CCO)ncc(OCCCN)c21 | -0.883 | 6.62 | -6.62 | -33.2 | -5.01
CCC(C(=O)NCc1cccc(C)c1)n1ccc2cc(S(=O)(=O)N3CCCCC3)ccc21 (stereo not drawn) | -1.25 | 5.16 | -1.09 | 0.232 | -0.295
CCOC(=O)c1cc2n(n1)CC(C)(C(=O)NCCC(C)C)N(CCCc1ccccc1)C2=O (stereo not drawn) | -3.95 | 4.3 | -3.82 | -5.46 | -8.78

SMILES | activity change, negative = inhibition [1] [%] | activity change, negative = inhibition [2] [%] | activity change, negative = inhibition [3] [%] | activity change, negative = inhibition [4] [%] | activity change, negative = inhibition [5] [%]
CC(=O)c1cc2c(cc1O)OC(C)(C)C=C2 | -2.25 | -3.37 | 6.64 | -17.5 | -1.42
COC(=O)[C@@H](Cc1cccnc1)NC(=O)[C@@H]1CN(C(=O)c2cccc(F)c2)CCN1C(=O)C1CCCCC1 | -3.44 | -8.76 | -4.23 | -14 | 9.04
COC(=O)NCCNC(=O)c1cccc(-c2ccc(SC)cc2)c1 | -4.57 | -1.57 | 1.22 | -5.98 | -1.15
Cn1cccc1C(=O)N1CC(CO)C2(CCNCC2)C1 (stereo not drawn) | 1.91 | -0.45 | 0.094 | 2.06 | -19.9
CN1CCC(C(=O)N2CCC3(CC2)CN(C(=O)c2ccc(Cl)cc2)CCO3)CC1 | 0.132 | -0.002 | -4.07 | -0.606 | 2.87
Cc1ccc(Cn2c(=O)c3ccc(C(=O)NC(C)C)cc3n3c(=O)n(C)nc23)cc1 | 2.16 | 0 | 5.74 | 3.25 | 1.58
C[C@]12CC[C@@H]3c4ccc(O)cc4CC[C@H]3[C@@H]1CCC2=O | -28.9 | 8.85 | 3.07 | -10.4 | 1.51
Cc1cccc(CCNC(=O)CCCc2nnc3n4nc(-c5ccccc5)nc4c4ccccc4n23)c1 | 2.31 | 2.62 | 8.09 | 10 | 3.59
COc1cncc(Nc2cnc3ccc(-c4ccccc4OC)nn23)c1 | -12.7 | -14.1 | -17.9 | -23 | -18.3
CC1=C(c2ccc(NC(=O)c3c(F)cccc3F)cc2)CN(c2nccs2)CC1 | -2.32 | -8.37 | -6.67 | -15.3 | -1.59
Cn1c(=O)n(CC(=O)NCc2ccc3c(c2)OCO3)c(=O)c2cnc(-c3ccc(Cl)cc3)nc21 | 0.962 | 5.57 | -3.67 | -2.19 | -0.918
CCOC(=O)c1cc2n(n1)CC(C)(C(=O)NC1CCC(C)CC1)N(c1ccc(F)cc1C)C2=O (stereo not drawn) | -0.549 | 3 | -1.07 | -2.29 | -3.32
CC1(C)C=CN2C(=O)C3=CCCN3C(=O)[C@@H]2C[C@@]12Nc1ccccc1C2=O | 0 | -1.88 | 4.5 | -15.3 | -12.2
CC(=O)Nc1c2n(c3ccc(F)cc13)CC(C)(C(=O)NC1CCCC1)N(C1CCC(C)CC1)C2=O (stereo not drawn) | -0.011 | -3.18 | 2.43 | -10.6 | -4.06
CC1(C(=O)NC2CCCCC2)Cn2c(cc3occc32)C(=O)N1CCCN1CCCCC1 (stereo not drawn) | 9.23 | 0.022 | 5.13 | 14.9 | 5.76
Nc1ncnc2c1c(-c1cccc(OCc3ccccc3)c1)cn2C1CC(CN2CCC2)C1 (stereo not drawn) | -80.7 | -52.1 | -95 | -77.1 | -97.9
O=C(NCCc1cccs1)c1nnc(-c2ccc(S(=O)(=O)N3CCCC3)cc2)o1 | -3.26 | -0.836 | -3.78 | -11.1 | -7.78
CNc1cc(OC)c(C(=O)N[C@@H]2CCN(Cc3ccccc3)[C@@H]2C)cc1Cl | -1.46 | 2.27 | 2.18 | -16.5 | -7.78
CC1(C(=O)NC2CCCC2)Cn2c(cc3ccccc32)C(=O)N1Cc1cccc(F)c1 (stereo not drawn) | 1.04 | 3.03 | 3.61 | -13.6 | -3.66
CCNCc1nc2c(N)nc3ccccc3c2n1CC(C)(C)O | 1.09 | 3.83 | -7.61 | -14.8 | 3.3

SMILES | activity change, negative = inhibition [1] [%] | activity change, negative = inhibition [2] [%] | activity change, negative = inhibition [3] [%] | activity change, negative = inhibition [4] [%] | activity change, negative = inhibition [5] [%]
CN1CC(=O)N(C2CCCC2)Cc2c(NC3CCCC3)ncnc21 | -3.21 | -1.5 | -7.99 | -12 | -1.47
Cn1c(=O)c2ccc(C(=O)NC3CCCCC3)cc2n2c(=O)n(CC(=O)c3cccc(Cl)c3)nc12 | -0.137 | -2.71 | 0.08 | 11.5 | -1.74
CCNc1ncc(C(=O)NC2CC(c3nnc(CO)n3CC)C2)cn1 (stereo not drawn) | -7.51 | -14.4 | -5.41 | -10.2 | -9.26
CC(=O)Nc1ccc(Nc2nc3c(S(=O)(=O)c4ccc(C(C)C)cc4)nnn3c3ccccc23)cc1 | -3.44 | 0 | 4.03 | 0.169 | -4.28
CCOC(=O)c1ccccc1NC(=O)N1CCn2c(C)ccc2C1CC (stereo not drawn) | -6.13 | 3.39 | 6.74 | -2.08 | -4.88
Cc1ccc(NC(=O)N2CCn3cccc3C2Cc2ccccc2)cc1F (stereo not drawn) | -11.4 | -9.86 | -12.3 | -11 | -11.1
Cc1cccc(Nc2nc(N)nc(CN3CC[C@@](O)(C4CCC4)[C@H](C)C3)n2)c1 | -0.229 | -0.986 | -7.13 | -7.98 | -12.3
COc1ccc(S(=O)(=O)Nc2ccc3n(c2=O)C[C@H]2C[C@@H]3CN(C(=O)Nc3cc(OC)cc(OC)c3)C2)cc1 | -11.3 | -13.1 | -11.6 | -21.4 | -30.7
CC(C)Cn1c(=O)c2ccc(C(=O)NC(C)C)cc2n2c(SCC(N)=O)nnc12 | 4.97 | 0 | 9.42 | 4.91 | 5.91
Oc1ccc2c(c1)OCC1(O)Cc3cc(O)c(O)cc3C21 (stereo not drawn) |  | -2.32 |  | -18.1 | 3.98
C[C@@H]1O[C@@H](O[C@H]2[C@H](O)[C@@H](O[C@@H]3O[C@H](CO)[C@@H](O)[C@H](O[C@@H]4O[C@H](CO)[C@@H](O)[C@H](O)[C@H]4O)[C@H]3O)[C@H](O[C@H]3CC[C@@]4(C)C(=CC[C@@H]5C4CC[C@@]4(C)C5C[C@@H]5OC6(CC[C@@](C)(CO[C@@H]7O[C@H](CO)[C@@H](O)[C@H](O)[C@H]7O)O6)[C@@H](C)[C@@H]54)C3)O[C@@H]2CO)[C@H](O)[C@H](O)[C@H]1O (stereo partly drawn) | -2.56 | -9.89 | 7.47 | -20.8 | -9.22
CCN(CC)C(=O)c1cc2c(s1)CCC(C(=O)O)C2 (stereo not drawn) | -2 | -1.45 | 0.613 | -1.71 | -6.21
CC1(C)CC2C(O)C3=C(CC(C)(O)C2C1)C(=O)OC3O (stereo not drawn) | 5.2 | 6.89 | 14 | -6.79 | 7.83
Cc1cccc(OCc2c(C(=O)N3CCCC3c3nncn3CCN(C)C)noc2C)c1 (stereo not drawn) | -5.46 | -1.41 | -1.13 | -2.42 | 2.8
C=C(C)C(=O)O[C@H]1[C@H]2C(=C)C(=O)O[C@@H]2/C=C(\CO)CC/C=C(/C=O)[C@@H]1O | -3.88 | -1.37 | 2.5 | -12.8 | -9.15
OC[C@H]1O[C@@H](n2cnc3c(NC4CCCCC4)ncnc32)[C@H](O)[C@@H]1O | -0.715 | 7.58 | 7.19 | -13.3 | -9.1
O=C1CCCN1CCCN1C(=O)[C@H]2CN(Cc3ccc(Cl)cc3)C[C@H]2C1=O | -1.65 | 0.608 | 0.437 | -3.68 | -1.65
CC1(C)OC(=O)CC(O)C2(C)C1CC(=O)C1(C)C2C(O)CC2(C)C(c3ccoc3)OC(=O)C3OC321 (stereo not drawn) | 3.96 | 3.26 | 8.46 | -9.09 | 0.311
CC(=O)OC1C(O)C(C)=C(CCC(C)CC(=O)O)C2(C)CCCC(C)(C)C12 (stereo not drawn) | 2.57 | 7.11 | 12.5 | -6.98 | 5.29
